# Assay results as given in publication PMC4336329 (PLoS ONE, 2015).
# Out of some 310,000 compounds screened, about 14,000 (4.5%) showed an effect of 50% or more. The effect is printed as a negative number. The list shows a part of the results.
# Molecular target: human ether-à-go-go-related gene (hERG) potassium channel (human, UniProt Q12809)
# Test: primary screen, population patch clamp on CHO cells stably expressing hERG
# 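Further: peak tail current of the secondary pulse compared with the same well before compound.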
# Sequence of human ether-à-go-go-related gene (hERG) potassium channel (Q12809 whole entry, looked up): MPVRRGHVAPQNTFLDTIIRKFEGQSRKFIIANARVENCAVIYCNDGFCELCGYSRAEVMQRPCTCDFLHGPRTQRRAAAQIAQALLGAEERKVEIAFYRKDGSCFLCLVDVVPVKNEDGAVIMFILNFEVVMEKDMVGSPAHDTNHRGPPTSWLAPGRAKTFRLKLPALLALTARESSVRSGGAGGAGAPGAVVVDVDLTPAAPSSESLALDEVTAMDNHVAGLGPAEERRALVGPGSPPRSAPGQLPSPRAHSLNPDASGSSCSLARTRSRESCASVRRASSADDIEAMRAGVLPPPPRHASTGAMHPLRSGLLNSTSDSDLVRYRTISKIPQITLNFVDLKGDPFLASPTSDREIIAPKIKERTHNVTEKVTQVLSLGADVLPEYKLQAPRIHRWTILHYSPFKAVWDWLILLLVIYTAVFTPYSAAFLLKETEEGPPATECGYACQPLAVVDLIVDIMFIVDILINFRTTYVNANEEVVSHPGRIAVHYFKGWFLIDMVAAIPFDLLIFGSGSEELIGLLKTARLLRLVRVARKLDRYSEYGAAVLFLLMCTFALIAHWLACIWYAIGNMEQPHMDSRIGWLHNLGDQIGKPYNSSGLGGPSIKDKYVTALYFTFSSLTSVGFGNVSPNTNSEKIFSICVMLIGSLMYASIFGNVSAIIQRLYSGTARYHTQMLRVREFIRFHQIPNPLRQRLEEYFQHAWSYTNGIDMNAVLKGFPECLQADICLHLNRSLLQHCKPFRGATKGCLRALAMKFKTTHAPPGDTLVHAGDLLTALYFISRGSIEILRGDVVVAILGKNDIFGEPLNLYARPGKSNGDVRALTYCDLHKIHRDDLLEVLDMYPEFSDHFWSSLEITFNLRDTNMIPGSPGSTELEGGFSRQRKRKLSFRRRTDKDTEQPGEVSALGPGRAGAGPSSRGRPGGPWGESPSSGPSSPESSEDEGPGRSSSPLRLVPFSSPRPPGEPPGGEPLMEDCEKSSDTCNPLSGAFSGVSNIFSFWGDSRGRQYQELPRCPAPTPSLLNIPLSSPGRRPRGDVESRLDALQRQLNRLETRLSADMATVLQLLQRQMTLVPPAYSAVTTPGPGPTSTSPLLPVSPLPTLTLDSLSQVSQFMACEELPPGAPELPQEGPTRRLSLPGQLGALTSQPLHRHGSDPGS
row,SMILES,"hERG current change (%, negative = inhibition) at 10uM [%]"
1,Cc1ccc(C(=O)N2CCN(CCNC(=O)C(=O)NCc3ccc(Cl)cc3)CC2)cc1,-74
2,Brc1ccc(C2=CC(c3cccs3)n3ncnc3N2)cc1 (centres unmarked),-21
3,O=C1CN(C(=O)COC(=O)c2ccccc2NC(=O)c2ccco2)c2ccccc2N1,-22.6
4,COc1ccccc1CN1CC(C(=O)N(C)CCOc2ccccc2)CCC1=O (centres unmarked),-9.29
5,CCc1ccccc1NC(=O)Cn1nnc(C(=O)NCc2cccc(OC)c2)c1N,9.99
6,COCc1nnc(NC(=O)c2ccc(NC(C)=O)cc2)s1,2.68
7,O=C(Nc1ccccc1)C1=C[C@H](c2ccccc2)C[C@H](OCc2ccc(CO)cc2)O1,-3.42
8,Cn1cncc1C(=O)c1ccccc1,15.3
9,CC(C)CNC(=S)NC1CC2CCCC(C1)N2Cc1ccco1 (centres unmarked),-26.6
10,Cc1cccc(C(=O)NCC2CCCO2)c1 (centres unmarked),17.8
11,CN(/N=C/c1cccs1)c1cc(=O)n(C)c(=O)[nH]1,-1.93
12,CC1=CCC(C(=O)O)(C(=O)N/N=C/c2cccnc2)C(c2ccccc2)C1 (centres unmarked),-19.1
13,O=C(NC(=S)Nc1ccccc1N1CCOCC1)c1ccc(-c2cccc(Cl)c2)o1,9.91
14,CC(Sc1nnc(-c2ccccc2F)n1N)C(=O)NCC1CCCO1 (centres unmarked),1.71
15,COc1cccc(NC(=O)Nc2nnc(Cc3ccccc3)s2)c1,12.5
16,C=CCSc1nc(Oc2ccccc2)c2sccc2n1,0.33
17,COc1ccc(CCNC(=O)CN(c2ccc(C)cc2)S(=O)(=O)c2c(C)noc2C)cc1OC,-9.89
18,OCC#CCSc1nnc(-c2ccncc2)o1,-0.348
19,COc1ccccc1/C=C1/SC(=S)N(CCC(=O)Nc2cccnc2)C1=O,9.87
20,CCOC(=O)/C(C#N)=C(\O)c1ccc(NC(=O)c2ccc([N+](=O)[O-])cc2)cc1,7.37
21,CSc1nc2ccccc2cc1/C=C(\C#N)c1cccc(Cl)c1,8.2
22,O=C(Nc1ccccc1Cl)c1csc(-c2cccnc2)n1,1.9
23,CCCCN(CCCC)CCNC(=O)CSCc1ccc(C)cc1.O=C(O)C(=O)O,-63.2

row,SMILES,"hERG current change (%, negative = inhibition) at 10uM [%]"
1,COc1ccc(F)cc1C(=O)COC(=O)c1n[nH]c(=O)c2ccccc12,-12.8
2,CCCCCCSc1ccc(-c2nc3ccc(C)cn3c2NC2CCCCC2)cc1.O=C(O)C(F)(F)F,10.9
3,OCCNc1cc(Cl)ncn1,4.5
4,COc1ccc(C2C(C(=O)c3cccs3)=C(O)C(=O)N2c2cccc(C)n2)cc1OC (centres unmarked),2.25
5,Cc1ccc(C)c(S(=O)(=O)c2c(N)n(/N=C/c3ccco3)c3nc4ccccc4nc23)c1,-5.78
6,CSC1=C(C#N)C(c2ccccc2)C(C(C)=O)=C(C)N1 (centres unmarked),10.6
7,COc1ccccc1C(=O)NNC(=O)C(=O)NCc1ccccc1,2.4
8,Cc1cccc(C)c1OCC(=O)N/N=C/c1cc2c(cc1[N+](=O)[O-])OCO2,-4.6
9,COc1ccc(S(=O)(=O)N2CC(=O)Nc3ccccc32)cc1C,0.792
10,COc1ccc(NC(=O)c2ccc(-c3nn(C)c(=O)c4ccccc34)cc2)cc1C(N)=O,6.4
11,Cc1c(Cl)cccc1Nc1nc(N)nc(CSC(=S)N2CCOCC2)n1,-12.5
12,CC1CCC(NC(=O)Cn2cnc3sccc3c2=O)CC1 (centres unmarked),-3.86
13,O=C(CNS(=O)(=O)c1ccccc1)OCC(=O)c1ccc([N+](=O)[O-])cc1,-3.22
14,CS(=O)(=O)N(CC(=O)N1CCCCCC1)c1cccc(F)c1,9.13
15,Cc1cccc(NC(=O)C2CCCN(S(=O)(=O)c3cccc4cccnc34)C2)c1 (centres unmarked),-41.5
16,O=C(CCCn1c(SCc2ccccc2F)nc2ccccc2c1=O)NCC1CCCO1 (centres unmarked),-14
17,COCCNC(=O)c1c[nH]c2cc(OC)c(OC)cc2c1=O,15.9
18,c1ccc(CNc2ncnc3nc[nH]c23)nc1,5.41
19,CCC(CC)C(=O)Nc1cccc(C(=O)NCc2ccco2)c1,2.97
20,O=C(NC(=S)NCCc1ccccc1)C1CCCCC1,1.11
21,O=C(NCc1ccc2c(c1)OCO2)c1ccc(S(=O)(=O)N2CCOCC2)cc1,2.27
22,Cc1nn(-c2ccc(F)cc2)c(C)c1CN1CCN(CCc2ccccc2)C(CCO)C1 (centres unmarked),-67.5
23,NC(=O)c1sc2cc(C(F)(F)F)cnc2c1-c1ccccc1,15.5

row,SMILES,"hERG current change (%, negative = inhibition) at 10uM [%]"
1,Cc1cccc(CN2CCC(n3nccc3NC(=O)CCCc3ccccc3)CC2)n1,-20.2
2,CC1(C)C2CCC1(CS(=O)(=O)Nc1ccc(S(=O)(=O)N3CCCCC3)cc1)C(=O)C2 (centres unmarked),-18.3
3,CC(C)CC(=O)NC(=S)Nc1ccccn1,14.5
4,Cc1ccc(S(=O)(=O)Nc2c(C)n(C)n(-c3ccccc3)c2=O)cc1C(=O)OC(C)C(=O)N(C)c1ccccc1 (centres unmarked),-10.5
5,Cc1nc(-c2ccccc2)sc1-c1ccnn1C,-6.14
6,OC(COc1ccc(F)cc1Cl)CN1CCC(Cc2ccccc2)CC1 (centres unmarked),-84.6
7,COc1ccc(/C=N/NC(=O)C(O)(c2ccccc2)c2ccccc2)cc1OC,-1.35
8,O=C(Nc1nnc(COc2ccccc2F)s1)Nc1ccccc1F,18.6
9,CCCCc1ccc(Nc2ncccc2C#N)cc1,0.0115
10,CC(=O)C(Cc1ccc(Cl)nc1)(Cc1ccc(Cl)nc1)C(C)=O,-7.36
11,CN1C(=S)SC(N(O)C(=O)Nc2cccc3ccccc23)C1(C)C (centres unmarked),8.33
12,CN(C)c1ccc(/C=N/NC(=O)c2ccn(C)n2)cc1,11.9
13,O=C(CCc1ccccc1)Oc1ccccc1[N+](=O)[O-],7.07
14,CCOP(=O)(OCC)C(NC(=O)c1cccc2ccccc12)C(Cl)(Cl)Cl (centres unmarked),1.75
15,CC(=O)NCCOc1ccc(C(=O)O)cc1,3.64
16,C=C(C)c1cccc(C(C)(C)NC(=O)NCCN(CC)CC)c1,-6.65
17,CC1(C)CC(NC(=O)Cc2ccccc2[N+](=O)[O-])CC(C)(C)N1,-4.2
18,Cc1ccc(-n2c(Cc3cccs3)nnc2SCC(=O)Nc2ccc(F)c(F)c2)cc1,-22
19,COc1ccc(OC)c(C(C[N+](=O)[O-])c2c(C)cc3ccccn23)c1 (centres unmarked),2.33
20,Cc1cccc(/C=N/NC(=O)c2ccc(NC(=O)c3cccc(Cl)c3)cc2)n1,11.7
21,COc1ccc2oc3cc(C)[n+]([O-])c(-c4ccc(Br)cc4)c3c2c1,-0.16
22,CCCc1c2ccccc2nc2ccccc12,-21.2
23,O=C(CSc1nc2[nH]ncc2c(=O)n1-c1ccccc1)NCc1cccs1,6.89

row,SMILES,"hERG current change (%, negative = inhibition) at 10uM [%]"
1,CN(C)CCCOC(=O)c1ccccc1Cl.Cl,-0.792
2,COc1ccc2[nH]c(=O)c(CN(Cc3nnnn3CCc3ccccc3)CC3CCCO3)cc2c1 (centres unmarked),-30.2
3,Cc1ccc(C(C)C)c(OCC(O)CN2CC(C)OC(C)C2)c1.Cl (centres unmarked),-8.64
4,COc1ccc(/C=N/n2c(C)nc3sc(C)c(C)c3c2=O)cc1,20.5
5,COc1ccc(N=C2SC(C(N)=O)CC(=O)N2CCc2ccc(OC)c(OC)c2)cc1 (centres unmarked),1.7
6,C=C(C)c1cccc(C(C)(C)NC(=O)Nc2ccc(OC)cc2)c1,8.48
7,COc1cc(OC)cc(-n2nnnc2SCC(=O)Nc2nc3c(s2)CCCC3)c1,7.1
8,O=C(Nc1nc(-c2cccnc2)cs1)c1ccccc1Cl,1.51
9,COC(=O)CC1C(=O)NCCN1C(=O)CSc1nc2ccc([N+](=O)[O-])cc2s1 (centres unmarked),6.54
10,CCOC(=O)C1C(C(=O)Nc2cccc(C(F)(F)F)c2)C1C(=O)NC(C)C (centres unmarked),14.5
11,CCOc1ccccc1CNC(=O)c1nn(CC)cc1[N+](=O)[O-],9.07
12,Clc1ccc(-n2c(SCc3nc4ccccc4[nH]3)nnc2-c2ccncc2)cc1,-39.3
13,O=C(COc1ccc2c3c(c(=O)oc2c1)CCC3)NC1CCCCC1,4.83
14,O=C1CC(c2cccs2)Sc2nc3ccccc3n21 (centres unmarked),4.02
15,Cc1ccc(N2C(=O)CCC2=O)c(C)c1,7.49
16,COc1ccccc1NC(=O)Cc1nnc(SCC(=O)NC2=NCCS2)n1C,8.56
17,CN(CC(=O)Nc1ccc(Cl)cc1)c1ccc(S(=O)(=O)N2CCCCC2)cc1[N+](=O)[O-],-16.7
18,O=C(CSc1nc2ccccc2o1)Nc1nccs1,9.44
19,O=C(O)C(=O)O.c1ccc(-c2ccccc2OCCCN2CCOCC2)cc1,-37.1
20,Cc1nc2ccc(C(=O)O)cc2c2c1CC(C)S2 (centres unmarked),-16
